Experimental data from the supplement of paper PMC10320760.
Single values of this set are uncertain.

B1: Ydj1; a variant is named by its letters at X, in order (parent)
chain: MVKETKFYDILGVPVTATDVEIKKAYRKCALKYHPDKNPSEEAAEKFKEASAAYEILSDPEKRDIYDQFGEDGLSGAGGAGGFPGGGFGFGDDIFSQFFGAGGAQRPRGPQRGKDIKHEISASLEELYKGRTAKLALNKQILCKECEGRGGKKGAVKKCTSCNGQGIKFVTRQMGPMIQRFQTECDVCHGTGDIIDPKDRCKSCNGKKVENERKILEVHVEPGMKDGQRIVFKGEADQAPDVIPGDVVFIVSERPHKSFKRDGDDLVYEAEIDLLTAIAGGEFALEHVSGDWLKVGIVPGEVIAPGMRKVIEGKGMPIPKYGGYGNLIIKFTIKFPENHFTSEENLKKLEEILPPRIVPAIPKKATVDECVLADFDPAKYNRTRASRGGANYDSDEEEQGGEGVQCXXX

Variants of: B1
Assay: enrichment factor, frequency at 37 °C / frequency at 25 °C (thermotolerance selection) (ratio); higher = more growth at 37 °C, higher likelihood of farnesylation
Conditions: with Saccharomyces cerevisiae ydj1Δ (yWS304); selective temperature 37 °C; reference temperature 25 °C
Procedure: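 Pooled library of all 8,000 Ydj1-CXXX C-terminal motif variants (native CASQ replaced by C + three variable residues, one codon per amino acid) expressed from a CEN plasmid in S. cerevisiae ydj1Δ (yWS304). The library was grown in SC-Ura liquid to A600 ~2 (~8 generations) at permissive 25 °C or selective 37 °C. Reads from 8 and 7 replicates were pooled and variants counted by NGS. Enrichment factor = frequency at 37 °C / frequency at 25 °C, with a +1 correction; it reports Ydj1-dependent thermotolerance, used as a read-out of farnesylation by yeast FTase.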

| Variant | enrichment factor |
| --- | --- |
| TGV | 1.54 |
| TGY | 1.69 |
| TGQ | 1.47 |
| TGT | 1.46 |
| TGR | 0.17 |
| TGM | 1.2 |
| TGP | 0.195 |
| TGL | 1.53 |
| TGS | 2.52 |
| TGW | 1.63 |
| TGN | 0.852 |
| CHC | 0.339 |
| CHE | 1.7 |
| CHA | 1.28 |
| CHD | 1.09 |
| CHF | 0.402 |
| GGV | 0.609 |
| GGN | 0.0936 |
| GGQ | 2.14 |
| GGR | 0.143 |
| GGT | 0.343 |
| GGW | 1.92 |
| GGS | 0.44 |
| GGL | 0.278 |

| Variant | enrichment factor |
| --- | --- |
| GGM | 1.49 |
| GGY | 1.02 |
| GGP | 0.243 |
| KGV | 0.712 |
| KGW | 1.51 |
| KGL | 0.221 |
| KGM | 1.36 |
| KGT | 0.877 |
| KGQ | 1.51 |
| KGR | 0.148 |
| KGN | 0.382 |
| KGP | 0.0628 |
| KGY | 1.51 |
| KGS | 1.51 |
| PHD | 0.334 |
| PHF | 2.06 |
| PHA | 2.24 |
| PHE | 1.28 |
| PHC | 1.69 |
| HHD | 0.221 |
| HHE | 1.52 |
| HHF | 1.42 |
| HHG | 1.33 |
| HHA | 2.8 |

| Variant | enrichment factor |
| --- | --- |
| HHC | 2.38 |
| VGK | 0.174 |
| VGR | 0.138 |
| VGT | 1.47 |
| VGY | 1.63 |
| VGV | 1.58 |
| VGN | 1.29 |
| VGP | 0.138 |
| VGS | 1.06 |
| VGL | 1.63 |
| VGQ | 1.6 |
| VGM | 1.18 |
| VGW | 1.24 |
| GHG | 0.455 |
| GHF | 0.66 |
| GHA | 1.5 |
| GHC | 1.56 |
| GHE | 0.346 |
| GHD | 0.161 |
| VHF | 2.09 |
| VHA | 1.6 |
| VHE | 1.7 |
| VHC | 2.79 |
| VHD | 2.1 |

| Variant | enrichment factor |
| --- | --- |
| YHF | 1.22 |
| YHD | 0.228 |
| YHE | 0.17 |
| YHA | 5.63 |
| YHC | 3.13 |
| QHD | 0.444 |
| QHF | 1.98 |
| QHA | 2.14 |
| QHC | 2.42 |
| QHE | 1.24 |
| EHG | 1.35 |
| EHA | 1.48 |
| EHD | 0.26 |
| EHE | 0.386 |
| EHF | 1.54 |
| EHC | 1.75 |
| YGR | 0.0951 |
| YGK | 0.111 |
| YGV | 0.795 |
| YGL | 0.248 |
| YGS | 1.12 |
| YGP | 0.13 |
| YGT | 0.815 |
| YGN | 0.241 |

| Variant | enrichment factor |
| --- | --- |
| YGM | 1.64 |
| YGW | 1.63 |
| YGY | 0.852 |
| YGQ | 1.03 |
| DGM | 0.365 |
| DGK | 0.164 |
| DGL | 0.116 |
| DGT | 0.141 |
| DGS | 0.158 |
| DGR | 0.155 |
| DGY | 0.132 |
| DGN | 0.163 |
| DGQ | 0.788 |
| DGW | 0.463 |
| DGP | 0.137 |
| DGV | 0.185 |
| NGL | 0.862 |
| NGM | 1.71 |
| NGV | 1.31 |
| NGP | 0.0827 |
| NGS | 1.66 |
| NGY | 1.45 |
| NGT | 1.03 |
| NGR | 0.0624 |

| Variant | enrichment factor |
| --- | --- |
| NGW | 1.56 |
| NGQ | 1.59 |
| NGN | 0.18 |
| PGW | 1.28 |
| PGR | 0.153 |
| PGV | 1.42 |
| PGL | 0.402 |
| PGY | 1.78 |
| PGQ | 1.37 |
| PGN | 0.69 |
| PGT | 1.04 |
| PGS | 1.39 |
| PGP | 0.2 |
| PGM | 1.27 |
| KHG | 0.92 |
| KHA | 1.6 |
| KHE | 1.38 |
| KHF | 0.764 |
| KHC | 1.95 |
| KHD | 0.982 |
| IHD | 1.06 |
| IHG | 1.36 |
| IHF | 2.05 |
| IHA | 1.41 |

| Variant | enrichment factor |
| --- | --- |
| IHC | 2.1 |
| IHE | 1.45 |
| WHA | 2.38 |
| WHE | 2.02 |
| WHD | 1.07 |
| WHC | 1.33 |
| WHF | 1.72 |
| FGM | 1.25 |
| FGL | 0.751 |
| FGV | 1.07 |
| FGS | 1.39 |
| FGN | 0.621 |
| FGY | 1.02 |
| FGR | 0.209 |
| FGW | 0.815 |
| FGT | 1.01 |
| FGQ | 0.974 |
| FGP | 0.476 |
| THC | 0.0622 |
| THA | 1.94 |
| THF | 2.13 |
| THE | 1.39 |
| THD | 0.763 |
